Some of the results follow. At the low end of the ranking the order means little.
What follows are sequences tested against SIX1-Q177R homeodomain (UniProt Q15475) (assay: universal protein binding microarray). Conditions: Universal all-10-mer PBM (8x60K, AMADID 030236), 300 nM GST-tagged protein, Alexa Fluor 488 anti-GST; buffer, salt, pH and temperature not stated; high values mean tight binding; most listed sequences are background and not binding sites; double strand, one strand shown.

Row | Sequence | binding signal [E-score]
1 | AATCACCT | -0.0811
2 | GAACACGC | 0.393
3 | AGCCGCAA | -0.176
4 | CTCCACCA | 0.147
5 | TCTTTCCA | -0.218
6 | CTCGGCTC | -0.177
7 | GACGGAAA | -0.31
8 | ATCGTCGC | -0.0464
9 | AAGACCTT | -0.257
10 | ATTATTGG | -0.118
11 | TCTGGACA | 0.0927
12 | ATCAGAGG | -0.202
13 | CTAACGGC | -0.181
14 | TCCATGGA | 0.16
15 | GGGAGTAA | 0.225
16 | CAAGCGCA | -0.0604
17 | ACTCCAAG | 0.2
18 | TAGGCATA | -0.0263
19 | GCAGGGGA | 0.00588
20 | GTTCACCA | -0.136
21 | CAAGACAA | -0.194
22 | TAGAATCA | -0.109
23 | GCGCTTAA | -0.185
24 | CACAGGTG | 0.307
25 | CTGGGATC | 0.0802

Row | Sequence | binding signal [E-score]
26 | AGTTAAGG | 0.146
27 | AATGTTCA | -0.194
28 | GCTCCCAA | -0.22
29 | GAGAGGGA | -0.19
30 | CCACTGGC | -0.141
31 | TCACGCCA | -0.0678
32 | CGGGGCAA | -0.0457
33 | AACCCAGC | -0.06
34 | AGTCCCTC | -0.133
35 | AAAAGTGG | -0.121
36 | CACCACTA | 0.349
37 | AGATAGCG | -0.165
38 | GGTAGACA | 0.139
39 | ACGAGTGA | 0.0845
40 | GCGGGCAA | -0.13
41 | AACAAACT | -0.135
42 | GTGAGTGA | -0.00624
43 | CATTCAAG | -0.127
44 | AAACGATA | -0.0934
45 | CATAAGAC | -0.0698
46 | GGGTACAA | 0.17
47 | GCTTTAGA | -0.151
48 | CGATCAGA | -0.17
49 | AGCTTACG | -0.101
50 | CCACCACG | 0.0217

Row | Sequence | binding signal [E-score]
51 | GGCCGACC | -0.00408
52 | GAATATAC | -0.199
53 | AGTGAGGC | -0.119
54 | AGCTTATG | -0.0459
55 | ATCAGCTC | -0.0842
56 | TTAAGAAA | -0.138
57 | AAAGCTTG | -0.229
58 | CTAGTTAC | 0.0699
59 | AATTCAGG | -0.00288
60 | CAAGGGTC | 0.00995
61 | GATCGATC | 0.1
62 | ACTCCTAT | 0.0321
63 | CCGACTCG | 0.159
64 | CATATACG | -0.0839
65 | AAGACAGA | -0.0625
66 | AGATCCTG | -0.071
67 | TGGGAAAA | -0.266
68 | CCCGACAG | -0.0511
69 | CGTCAAGA | -0.192
70 | ACGCTAAA | -0.159
71 | CTATCTTA | -0.226
72 | CGAGGACC | -0.0476
73 | GAGGAACA | 0.0209
74 | CATTCTCA | -0.114
75 | CGCACACG | 0.24

Row | Sequence | binding signal [E-score]
76 | CTCAACGA | -0.0294
77 | CAATACCC | 0.218
78 | GAACTAAA | -0.0185
79 | CGAGACCG | 0.0608
80 | AACGCGCG | -0.117
81 | CTCATCAG | 0.0668
82 | TCCTAGCA | 0.123
83 | CAGAAACG | -0.165
84 | ATAGACGG | -0.0634
85 | GAAGCTTA | -0.126
86 | CGGGTAAA | 0.194
87 | AAACTGCC | -0.132
88 | CCCTAAAA | -0.0645
89 | CGCAAGCA | -0.0492
90 | CAATCGTG | 0.076
91 | ACCGACGC | 0.133
92 | GATAGCCC | -0.207
93 | AAGGGTTC | 0.103
94 | TATTAACA | 0.0995
95 | CTAACTCA | -0.23
96 | GTCAGCCA | -0.0468
97 | AAATTTGT | -0.287
98 | GGCCCCTA | -0.208
99 | CAACATCC | -0.206
100 | AAGGGAAG | -0.203

Row | Sequence | binding signal [E-score]
101 | ACAACGCG | -0.217
102 | ACACCCAA | 0.454
103 | CCACCGTA | -0.0617
104 | GTGGTAAA | 0.00294
105 | AAAAAGGG | -0.0621
106 | AAAGCAGA | -0.229
107 | AACCAAAG | -0.0434
108 | CAGCGAGC | -0.0716
109 | ATATGGGA | 0.00717
110 | CGCATATC | -0.071
111 | CCAAATTC | -0.103
112 | TACCATCA | 0.113
113 | AGGCTTGA | -0.179
114 | AGATATCC | 0.0614
115 | GCGCAAAA | 0.097
116 | CGCGAGTC | 0.107
117 | CCACACAA | -0.0479
118 | ATACTGCG | -0.00343
119 | AACCAAGA | 0.118
120 | CGGACCAG | 0.0306
121 | CTTCGTAC | -0.0798
122 | ACACATCA | 0.0704
123 | CATAGGGG | 0.042
124 | GGTGCGCA | 0.157
125 | CCCGACTC | 0.147

Row | Sequence | binding signal [E-score]
126 | CGGACTAA | -0.0476
127 | ATCAGAGC | -0.056
128 | CGTGCTGC | -0.0896
129 | AGTGAGTA | -0.103
130 | GAAACGCA | -0.116
131 | CCGAGTCA | 0.157
132 | AACCTGTG | 0.0858
133 | ACATCAAG | -0.184
134 | ACCGCAAA | -0.00495
135 | CTAGACCA | -0.218
136 | CAAGATAA | -0.052
137 | ATCCTACG | -0.0423
138 | CATGCGCA | -0.0558
139 | CCTGCTAG | -0.126
140 | AGCTGCCG | -0.213
141 | ACCCTCAT | 0.105
142 | GCGCTTAC | 0.00213
143 | AAGGTCAG | -0.0752
144 | ACAGCGGT | 0.0128
145 | ATTCATGG | -0.0775
146 | AAAGGTGC | 0.071
147 | CTTTTCAA | -0.0466
148 | TAGACACA | 0.134
149 | GCAACAAA | -0.0111
150 | CTTCAAAG | -0.208

Row | Sequence | binding signal [E-score]
151 | AATTCGTC | -0.186
152 | GGGTGACA | 0.302
153 | GGATCGTA | 0.0494
154 | AAAACCGC | -0.103
155 | AGCCCAAA | 0.0244
156 | GTGATCCA | 0.105
157 | CCAGTTCC | -0.176
158 | GTAAGCCA | -0.0405
159 | AAATGACA | 0.0912
160 | TATAATCA | -0.0637
161 | CGCTAAAC | 0.0376
162 | GACGATCA | -0.182
163 | ACGTTCTC | -0.12
164 | AGGGGTCA | 0.28
165 | CGTGCAAG | 0.0524
166 | TCGCCCAA | -0.0964
167 | TTATTCAA | -0.0785
168 | AGCATACC | -0.085
169 | AATGTATA | -0.0907
170 | GAAGGTCA | -0.212
171 | ATTGTTGG | -0.133
172 | CCAACTAG | 0.223

Reference: PMC10668032
